# The supplement of paper PMC8728848
# The list shows a part of the results.
# Columns and labels:
# Assay in all cases: glycan array binding signal (z-score within array); higher = stronger binding
# Conditions in all cases: glycan notation: IUPAC condensed, linker removed
# [1] = target: Gal(b1-4)GlcNAc(b1-3)Gal(b1-4)GlcNAc(b1-2)Man(a1-3)[Gal(b1-4)GlcNAc(b1-3)Gal(b1-4)GlcNAc(b1-2)Man(a1-6)]Man(b1-4)GlcNAc(b1-4)[Fuc(a1-6)]GlcNAc
# Procedure, shortened: (§1)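 Arrays were curated from the Consortium for Functional Glycomics database, 3228 in total, and kept only where the protein sequence was available. Binding is expressed as a within-array Z-score. This score was averaged across arrays of the same protein sequence at different concentrations or buffers and across linkers, and negative values can be read as non-binding.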
# [2] = target: Gal(b1-4)GlcNAc(b1-3)Gal(b1-4)GlcNAc(b1-2)[Gal(b1-4)GlcNAc(b1-3)Gal(b1-4)GlcNAc(b1-6)]Man(a1-6)[Gal(b1-4)GlcNAc(b1-3)Gal(b1-4)GlcNAc(b1-2)Man(a1-3)]Man(b1-4)GlcNAc(b1-4)GlcNAc
# Procedure, shortened: as §1
# [3] = target: Gal(b1-4)GlcNAc(b1-3)Gal(b1-4)GlcNAc(b1-2)[Gal(b1-4)GlcNAc(b1-3)Gal(b1-4)GlcNAc(b1-6)]Man(a1-6)[Gal(b1-4)GlcNAc(b1-3)Gal(b1-4)GlcNAc(b1-2)Man(a1-3)]Man(b1-4)GlcNAc(b1-4)[Fuc(a1-6)]GlcNAc
# Procedure, shortened: as §1
# [4] = target: Gal(b1-4)GlcNAc(b1-3)Gal(b1-4)GlcNAc(b1-3)Gal(b1-4)GlcNAc
# Procedure, shortened: as §1
# [5] = target: Gal(b1-4)GlcNAc(b1-3)Gal(b1-4)GlcNAc(b1-3)Gal(b1-4)GlcNAc(b1-2)Man(a1-3)[Gal(b1-4)GlcNAc(b1-3)Gal(b1-4)GlcNAc(b1-3)Gal(b1-4)GlcNAc(b1-2)Man(a1-6)]Man(b1-4)GlcNAc(b1-4)GlcNAc
# Procedure, shortened: as §1
# [6] = target: Gal(b1-4)GlcNAc(b1-3)Gal(b1-4)GlcNAc(b1-3)Gal(b1-4)GlcNAc(b1-2)Man(a1-3)[Gal(b1-4)GlcNAc(b1-3)Gal(b1-4)GlcNAc(b1-3)Gal(b1-4)GlcNAc(b1-2)Man(a1-6)]Man(b1-4)GlcNAc(b1-4)[Fuc(a1-6)]GlcNAc
# Procedure, shortened: as §1
# [7] = target: Gal(b1-4)GlcNAc(b1-3)Gal(b1-4)GlcNAc(b1-3)Gal(b1-4)GlcNAc(b1-2)[Gal(b1-4)GlcNAc(b1-3)Gal(b1-4)GlcNAc(b1-3)Gal(b1-4)GlcNAc(b1-6)]Man(a1-6)[Gal(b1-4)GlcNAc(b1-3)Gal(b1-4)GlcNAc(b1-3)Gal(b1-4)GlcNAc(b1-2)Man(a1-3)]Man(b1-4)GlcNAc(b1-4)[Fuc(a1-6)]GlcNAc
# Procedure, shortened: as §1
# [8] = target: Gal(b1-4)GlcNAc(b1-3)Gal(b1-4)GlcNAc(b1-3)Gal(b1-4)GlcNAc(b1-3)Gal(b1-4)GlcNAc(b1-2)Man(a1-3)[Gal(b1-4)GlcNAc(b1-3)Gal(b1-4)GlcNAc(b1-3)Gal(b1-4)GlcNAc(b1-3)Gal(b1-4)GlcNAc(b1-2)Man(a1-6)]Man(b1-4)GlcNAc(b1-4)GlcNAc
# Procedure, shortened: as §1
# [9] = target: Gal(b1-4)GlcNAc(b1-3)Gal(b1-4)GlcNAc(b1-3)Gal(b1-4)GlcNAc(b1-3)Gal(b1-4)GlcNAc(b1-2)Man(a1-3)[Gal(b1-4)GlcNAc(b1-3)Gal(b1-4)GlcNAc(b1-3)Gal(b1-4)GlcNAc(b1-3)Gal(b1-4)GlcNAc(b1-2)Man(a1-6)]Man(b1-4)GlcNAc(b1-4)[Fuc(a1-6)]GlcNAc
# Procedure, shortened: as §1
# [10] = target: Gal(b1-4)GlcNAc(b1-3)Gal(b1-4)GlcNAc(b1-3)Gal(b1-4)GlcNAc(b1-3)Gal(b1-4)GlcNAc(b1-2)[Gal(b1-4)GlcNAc(b1-3)Gal(b1-4)GlcNAc(b1-3)Gal(b1-4)GlcNAc(b1-3)Gal(b1-4)GlcNAc(b1-6)]Man(a1-6)[Gal(b1-4)GlcNAc(b1-3)Gal(b1-4)GlcNAc(b1-3)Gal(b1-4)GlcNAc(b1-3)Gal(b1-4)GlcNAc(b1-2)Man(a1-3)]Man(b1-4)GlcNAc(b1-4)[Fuc(a1-6)]GlcNAc
# Procedure, shortened: as §1
# [11] = target: Gal(b1-4)GlcNAc(b1-3)Gal(b1-4)GlcNAc(b1-3)Gal(b1-4)GlcNAc(b1-3)Gal(b1-4)GlcNAc(b1-3)Gal(b1-4)GlcNAc(b1-2)Man(a1-3)[Gal(b1-4)GlcNAc(b1-3)Gal(b1-4)GlcNAc(b1-3)Gal(b1-4)GlcNAc(b1-3)Gal(b1-4)GlcNAc(b1-3)Gal(b1-4)GlcNAc(b1-2)Man(a1-6)]Man(b1-4)GlcNAc(b1-4)GlcNAc
# Procedure, shortened: as §1
# [12] = target: Gal(b1-4)GlcNAc(b1-3)Gal(b1-4)GlcNAc(b1-3)Gal(b1-4)GlcNAc(b1-3)Gal(b1-4)GlcNAc(b1-3)Gal(b1-4)GlcNAc(b1-2)Man(a1-3)[Gal(b1-4)GlcNAc(b1-3)Gal(b1-4)GlcNAc(b1-3)Gal(b1-4)GlcNAc(b1-3)Gal(b1-4)GlcNAc(b1-3)Gal(b1-4)GlcNAc(b1-2)Man(a1-6)]Man(b1-4)GlcNAc(b1-4)[Fuc(a1-6)]GlcNAc
# Procedure, shortened: as §1
# [13] = target: Gal(b1-4)GlcNAc(b1-3)Gal(b1-4)GlcNAc(b1-3)Gal(b1-4)GlcNAc(b1-3)Gal(b1-4)GlcNAc(b1-3)Gal(b1-4)GlcNAc(b1-2)[Gal(b1-4)GlcNAc(b1-3)Gal(b1-4)GlcNAc(b1-3)Gal(b1-4)GlcNAc(b1-3)Gal(b1-4)GlcNAc(b1-3)Gal(b1-4)GlcNAc(b1-6)]Man(a1-6)[Gal(b1-4)GlcNAc(b1-3)Gal(b1-4)GlcNAc(b1-3)Gal(b1-4)GlcNAc(b1-3)Gal(b1-4)GlcNAc(b1-3)Gal(b1-4)GlcNAc(b1-2)Man(a1-3)]Man(b1-4)GlcNAc(b1-4)[Fuc(a1-6)]GlcNAc
# Procedure, shortened: as §1
# [14] = target: Gal(b1-4)GlcNAc(b1-3)Gal(b1-4)GlcNAc(b1-3)Gal(b1-4)GlcNAc(b1-3)Gal(b1-4)GlcNAc(b1-3)Gal(b1-4)GlcNAc(b1-3)Gal(b1-4)GlcNAc(b1-2)Man(a1-3)[Gal(b1-4)GlcNAc(b1-3)Gal(b1-4)GlcNAc(b1-3)Gal(b1-4)GlcNAc(b1-3)Gal(b1-4)GlcNAc(b1-3)Gal(b1-4)GlcNAc(b1-3)Gal(b1-4)GlcNAc(b1-2)Man(a1-6)]Man(b1-4)GlcNAc(b1-4)GlcNAc
# Procedure, shortened: as §1
# [15] = target: Gal(b1-4)GlcNAc(b1-3)Gal(b1-4)GlcNAc(b1-3)GalNAc
# Procedure, shortened: as §1
# [16] = target: Gal(b1-4)GlcNAc(b1-3)Gal(b1-4)GlcNAc(b1-3)[Gal(b1-4)GlcNAc(b1-3)Gal(b1-4)GlcNAc(b1-6)]GalNAc
# Procedure, shortened: as §1
# [17] = target: Gal(b1-4)GlcNAc(b1-3)Gal(b1-4)GlcNAc(b1-6)[Gal(b1-3)]GalNAc
# Procedure, shortened: as §1
# [18] = target: Gal(b1-4)GlcNAc(b1-3)Gal(b1-4)[Fuc(a1-3)]GlcNAc(b1-3)Gal(b1-4)[Fuc(a1-3)]GlcNAc
# Procedure, shortened: as §1
# [19] = target: Gal(b1-4)GlcNAc(b1-3)GalNAc
# Procedure, shortened: as §1
# [20] = target: Gal(b1-4)GlcNAc(b1-3)[Fuc(a1-3)GlcNAc(b1-6)]Gal(b1-4)Glc
# Procedure, shortened: as §1
# [21] = target: Gal(b1-4)GlcNAc(b1-3)[Gal(b1-4)GlcNAc(b1-6)]Gal(b1-4)GlcNAc
# Procedure, shortened: as §1
# [22] = target: Gal(b1-4)GlcNAc(b1-3)[GlcNAc(b1-6)]Gal(b1-4)GlcNAc
# Procedure, shortened: as §1
# [23] = target: Gal(b1-4)GlcNAc(b1-6)Gal(b1-4)GlcNAc
# Procedure, shortened: as §1
# [24] = target: Gal(b1-4)GlcNAc(b1-6)GalNAc
# Procedure, shortened: as §1
# [25] = target: Gal(b1-4)GlcNAc(b1-6)[Gal(b1-3)]GalNAc
# Procedure, shortened: as §1
# [26] = target: Gal(b1-4)GlcNAc(b1-6)[Gal(b1-4)GlcNAc(b1-3)]GalNAc
# Procedure, shortened: as §1
# Gal(b1-4)GlcNAc6P = target: Gal(b1-4)GlcNAc6P
# Procedure, shortened: as §1
# Gal(b1-6)Gal = target: Gal(b1-6)Gal
# Procedure, shortened: as §1
# Gal3S(b1-3)GalNAc = target: Gal3S(b1-3)GalNAc
# Procedure, shortened: as §1
# Gal3S(b1-3)GlcNAc = target: Gal3S(b1-3)GlcNAc
# Procedure, shortened: as §1
# [27] = target: Gal3S(b1-3)[Fuc(a1-4)]GlcNAc
# Procedure, shortened: as §1
# Gal3S(b1-4)Glc = target: Gal3S(b1-4)Glc
# Procedure, shortened: as §1
# Gal3S(b1-4)Glc6S = target: Gal3S(b1-4)Glc6S
# Procedure, shortened: as §1
# Gal3S(b1-4)GlcNAc = target: Gal3S(b1-4)GlcNAc
# Procedure, shortened: as §1
# [28] = target: Gal3S(b1-4)[Fuc(a1-3)]Glc6S
# Procedure, shortened: as §1
# [29] = target: Gal3S(b1-4)[Fuc(a1-3)]GlcNAc
# Procedure, shortened: as §1
# [30] = target: Gal3S(b1-4)[Fuc(a1-3)]GlcNAc6S
# Procedure, shortened: as §1
# Gal3S4S(b1-4)GlcNAc = target: Gal3S4S(b1-4)GlcNAc
# Procedure, shortened: as §1
# Gal3S6S(b1-4)GlcNAc = target: Gal3S6S(b1-4)GlcNAc
# Procedure, shortened: as §1
# Gal3S6S(b1-4)GlcNAc6S = target: Gal3S6S(b1-4)GlcNAc6S
# Procedure, shortened: as §1
# Gal4S(b1-4)GlcNAc = target: Gal4S(b1-4)GlcNAc
# Procedure, shortened: as §1
# Gal4S6S(b1-4)GlcNAc = target: Gal4S6S(b1-4)GlcNAc
# Procedure, shortened: as §1
# Gal6P(b1-4)GlcNAc = target: Gal6P(b1-4)GlcNAc
# Procedure, shortened: as §1
# Gal6S(b1-3)GlcNAc = target: Gal6S(b1-3)GlcNAc
# Procedure, shortened: as §1
# Gal6S(b1-3)GlcNAc6S = target: Gal6S(b1-3)GlcNAc6S
# Procedure, shortened: as §1
binder,measurement,setting,value
MpAFP NterminalRI GFP (Marinomonas primoryensis) (protein) MSDNQFPFATLGNAIGFITKLDGSVTVQSIDGQERVLKLGDPIFFGETVLTGGSGSVTIAFVDGTDVVIGGDSIVEMTDEIYNTGDNEDLVADSSSEIDALQNAILAGDDPTLIQDAPAAGNTLADQQRVDVSIERNDNSAQAGFGVDTQSSLPTYGYDTDNGNGGQATEREYSAPSLSRTLNQSPLLEHHHHHH,glycan array binding signal (z-score),[1],0.687
same,glycan array binding signal (z-score),[2],1.28
same,glycan array binding signal (z-score),[3],4.16
same,glycan array binding signal (z-score),[4],-0.442
same,glycan array binding signal (z-score),[5],0.792
same,glycan array binding signal (z-score),[6],0.649
same,glycan array binding signal (z-score),[7],2.76
same,glycan array binding signal (z-score),[8],0.415
same,glycan array binding signal (z-score),[9],0.795
same,glycan array binding signal (z-score),[10],1.1
same,glycan array binding signal (z-score),[11],0.417
same,glycan array binding signal (z-score),[12],0.669
same,glycan array binding signal (z-score),[13],0.974
same,glycan array binding signal (z-score),[14],0.381
same,glycan array binding signal (z-score),[15],-0.334
same,glycan array binding signal (z-score),[16],0.613
same,glycan array binding signal (z-score),[17],-0.074
same,glycan array binding signal (z-score),[18],-0.517
same,glycan array binding signal (z-score),[19],1.47
same,glycan array binding signal (z-score),[20],-0.081
same,glycan array binding signal (z-score),[21],-0.159
same,glycan array binding signal (z-score),[22],0.914
same,glycan array binding signal (z-score),[23],0.073
same,glycan array binding signal (z-score),[24],-0.473
same,glycan array binding signal (z-score),[25],0.083
same,glycan array binding signal (z-score),[26],-0.033
same,glycan array binding signal (z-score),Gal(b1-4)GlcNAc6P,0.256
same,glycan array binding signal (z-score),Gal(b1-6)Gal,-0.337
same,glycan array binding signal (z-score),Gal3S(b1-3)GalNAc,0.044
same,glycan array binding signal (z-score),Gal3S(b1-3)GlcNAc,-0.338
same,glycan array binding signal (z-score),[27],0.018
same,glycan array binding signal (z-score),Gal3S(b1-4)Glc,1.98
same,glycan array binding signal (z-score),Gal3S(b1-4)Glc6S,-0.434
same,glycan array binding signal (z-score),Gal3S(b1-4)GlcNAc,-0.253
same,glycan array binding signal (z-score),[28],0.632
same,glycan array binding signal (z-score),[29],1.76
same,glycan array binding signal (z-score),[30],0.363
same,glycan array binding signal (z-score),Gal3S4S(b1-4)GlcNAc,-0.542
same,glycan array binding signal (z-score),Gal3S6S(b1-4)GlcNAc,-0.517
same,glycan array binding signal (z-score),Gal3S6S(b1-4)GlcNAc6S,-0.33
same,glycan array binding signal (z-score),Gal4S(b1-4)GlcNAc,-0.891
same,glycan array binding signal (z-score),Gal4S6S(b1-4)GlcNAc,-0.541
same,glycan array binding signal (z-score),Gal6P(b1-4)GlcNAc,0.296
same,glycan array binding signal (z-score),Gal6S(b1-3)GlcNAc,-0.541
same,glycan array binding signal (z-score),Gal6S(b1-3)GlcNAc6S,0.337
